Assay results as given in patent US20150141375A1 (priority 2009, published 2015).

Tested on: adenovirus
Test: First fifteen EIND patients: adenovirus
[1] = patient with pre-treatment resistance to cidofovir and CMX001

CCCCCCCCCCCCCCCCOCCCOP(=O)(O)CO[C@H](CO)Cn1ccc(N)nc1=O [CMX001, Hexadecyloxypropyl-cidofovir]
rebound following discontinuation of CMX001 [1]: 3 log | reduction in viremia [1]: ~1.5 log 10 | evaluable patients with >99% (2 log 10) reductions in adenovirus or below the limit of detection (six AdV patients): 5/6
